{"source": "PubChem BioAssay AID2313", "about": "(Broad Institute, 2010)", "note": "About 460 (2.1%) of roughly 22,000 compounds were called active. Inconclusive means that the source gave no clear call. Such entries were picked first, then a sample of the others.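 Rule for the calls: active = mean inhibition across valid replicates above about 65% (limit read from the data); inconclusive = mean under the limit, yet half or more replicates past it; inactive = the rest.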", "data": [{"test": "Shh-driven Gli reporter inhibition – luminescence, Shh-LIGHT2 cells, Gli-luciferase, primary screen (AID 2313);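 note: pathway switched on by Shh-conditioned medium diluted 1 in 25 in low serum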", "conditions": "30 h, hits give high values", "values": [{"smiles": "CC(C)NC(=O)Nc1ccc2c(c1)C(=O)N([C@H](C)CO)C[C@@H](C)[C@@H](CN(C)S(=O)(=O)c1ccc(F)cc1)O2", "inhibition": "inconclusive: 41.4%"}, {"smiles": "C[C@H](CO)N1C[C@H](C)[C@H](CN(C)Cc2ccccc2)Oc2ccc(NC(=O)CCC(F)(F)F)cc2CC1=O", "inhibition": "inconclusive: 33.6%"}, {"smiles": "COc1ccc(C(=C2C(=O)Nc3ccccc32)c2ccc(OC)cc2)cc1", "inhibition": "inconclusive: 54.8%"}, {"smiles": "C[C@H]1CN([C@@H](C)CO)C(=O)Cc2cc(NS(=O)(=O)c3ccc(Cl)cc3)ccc2O[C@@H]1CN(C)Cc1ccc2c(c1)OCO2", "inhibition": "inconclusive: 43.2%"}, {"smiles": "Cc1ccc(S(=O)(=O)Nc2ccc3c(c2)CC(=O)N([C@@H](C)CO)C[C@H](C)[C@@H](CN(C)Cc2ccc(C(F)(F)F)cc2)O3)cc1", "inhibition": "active: 68.7%"}, {"smiles": "C[C@@H]1CN([C@@H](C)CO)C(=O)Cc2cc(NS(=O)(=O)c3ccc(Cl)cc3)ccc2O[C@@H]1CN(C)Cc1ccc(Oc2ccccc2)cc1", "inhibition": "inconclusive: 57.7%"}, {"smiles": "C[C@@H]1CN([C@@H](C)CO)C(=O)Cc2cc(NC(=O)NC3CCCCC3)ccc2O[C@@H]1CN(C)C(=O)Nc1ccccc1", "inhibition": "inconclusive: 36.3%"}, {"smiles": "Cc1noc(C)c1NC(=O)Nc1ccc2c(c1)CC(=O)N([C@@H](C)CO)C[C@@H](C)[C@@H](CN(C)C(=O)Nc1ccc(F)cc1)O2", "inhibition": "inconclusive: 26.4%"}, {"smiles": "CC1(C)CC[C@]2(C(=O)O)CC[C@]3(C)C(=CCC4[C@@]5(C)CC[C@H](O[C@@H]6OC[C@H](O)[C@H](O)[C@H]6O)[C@@](C)(CO)C5CC[C@]43C)C2C1", "note": "(stereo not given in full)", "inhibition": "active: 79.3%"}, {"smiles": "C[C@H](CO)N1C[C@H](C)[C@H](CN(C)Cc2ccc(-c3ccccc3)cc2)Oc2c(NS(=O)(=O)c3ccc(Cl)cc3)cccc2C1=O", "inhibition": "inconclusive: -20.1%"}, {"smiles": "CCOC(=O)c1c(CN(C)C)n(-c2ccccc2)c2cc(Br)c(OC)cc12", "inhibition": "inconclusive: 62.5%"}, {"smiles": "C[C@H]1CN([C@@H](C)CO)C(=O)c2cccc(NC(=O)c3nc4ccccc4s3)c2O[C@@H]1CN(C)Cc1ccncc1", "inhibition": "inconclusive: 49.6%"}, {"smiles": "COc1cc(-c2cc(=O)c3c(O)c(OC)c(OC)c(O)c3o2)ccc1O", "inhibition": "inactive: 34%"}, {"smiles": "CC(C)NC(=O)Nc1ccc2c(c1)CC(=O)N([C@@H](C)CO)C[C@H](C)[C@@H](CN(C)C(=O)Nc1cccc3ccccc13)O2", "inhibition": "inconclusive: 19.6%"}, {"smiles": "CN(C)CC(O)Cn1c2ccc(Br)cc2c2cc(Br)ccc21", "note": "(stereo not given)", "inhibition": "inconclusive: 57.5%"}, {"smiles": "O=C(O)Cc1nn(Cc2ccc(Br)cc2F)c(=O)c2ccccc12", "inhibition": "inconclusive: 16.5%"}, {"smiles": "COc1ccc(NC(=O)Nc2ccc3c(c2)CC(=O)N([C@H](C)CO)C[C@@H](C)[C@@H](CN(C)Cc2ccc(Cl)c(Cl)c2)O3)cc1", "inhibition": "inactive: 23.4%"}, {"smiles": "C=CC1CN(C(C)=O)CCC1CCC(=O)c1ccnc2ccccc12", "note": "(stereo not given)", "inhibition": "inactive: -17.2%"}, {"smiles": "O=C(N1CC(Oc2ccc(Cl)cc2)C1)N1CC(Oc2ccc(Cl)cc2)C1", "inhibition": "inactive: 33.3%"}, {"smiles": "C[C@@H]1CN([C@H](C)CO)C(=O)Cc2cc(NS(=O)(=O)c3ccccc3)ccc2O[C@@H]1CN(C)Cc1ccc(Cl)c(Cl)c1", "inhibition": "inconclusive: 55.6%"}, {"smiles": "C[C@@H]1CCCCO[C@@H](CN(C)C(=O)Nc2ccc3c(c2)OCO3)[C@@H](C)CN([C@H](C)CO)C(=O)c2cc(N(C)C)ccc2O1", "inhibition": "inconclusive: 28.2%"}, {"smiles": "C[C@@H]1CN([C@H](C)CO)C(=O)Cc2cc(NC(=O)NC3CCCCC3)ccc2O[C@@H]1CN(C)C(=O)Nc1cccc2ccccc12", "inhibition": "inconclusive: 19.9%"}, {"smiles": "CC(C)NC(=O)N(C)C[C@@H]1Oc2ccc(N(C)C)cc2CC(=O)N([C@@H](C)CO)C[C@@H]1C", "inhibition": "inconclusive: 57.8%"}, {"smiles": "Cc1c(N2CCCC2)cc2c(c1N)C(C)(C)CC2(C)C", "inhibition": "inconclusive: 60.9%"}, {"smiles": "Cc1ccc(S(=O)(=O)N(C)C[C@@H]2Oc3c(NC(=O)Nc4ccc5c(c4)OCO5)cccc3C(=O)N([C@H](C)CO)C[C@@H]2C)cc1", "inhibition": "active: 115%"}, {"smiles": "C[C@H]1CN([C@@H](C)CO)C(=O)Cc2cc(NC(=O)c3ccncc3)ccc2O[C@H]1CN(C)CC1CCCCC1", "inhibition": "inconclusive: 42.7%"}, {"smiles": "CNCCCC12CCC(c3ccccc31)c1ccccc12", "inhibition": "inconclusive: 55.5%"}, {"smiles": "C[C@@H]1CN([C@@H](C)CO)C(=O)c2cccc(NC(=O)c3ccc(-c4nccs4)cc3)c2O[C@@H]1CN(C)Cc1ccc(-c2ccccc2)cc1", "inhibition": "inactive: 32.1%"}, {"smiles": "Cc1ccc(S(=O)(=O)N(C)C[C@@H]2Oc3c(NC(=O)C4CCCCC4)cccc3C(=O)N([C@@H](C)CO)C[C@@H]2C)cc1", "inhibition": "active: 104%"}, {"smiles": "CC1CC(NC(=S)NCc2csc3ccccc23)CC(C)(C)C1", "note": "(stereo not given)", "inhibition": "inconclusive: 50.4%"}, {"smiles": "C/C=C(\\C)C(=O)OC1C(OC(=O)/C=C(/C)CC(=O)O)C2(CO)C(O)CC3(C)C(=CCC4C5(C)CCC(OC6OC(C(=O)O)C(O)C(OC7OC(C)C(O)C(OC8OC(CO)C(O)C(O)C8O)C7O)C6O)C(C)(C)C5CCC43C)C2CC1(C)C", "note": "(stereo not given)", "inhibition": "active: 96.9%"}, {"smiles": "CCN(CC)c1c(C#N)c(SCC(=O)c2cccs2)cc2c1CCCC2", "inhibition": "active: 80.8%"}, {"smiles": "C[C@@H]1CN([C@@H](C)CO)C(=O)c2cccc(NS(=O)(=O)c3ccc(Cl)cc3)c2O[C@@H]1CN(C)Cc1ccc(-c2ccccc2)cc1", "inhibition": "inconclusive: 38%"}, {"smiles": "Cc1ccc(S(=O)(=O)N(C)C[C@H]2Oc3ccc(NC(=O)Nc4ccc5c(c4)OCO5)cc3CC(=O)N([C@@H](C)CO)C[C@H]2C)cc1", "inhibition": "inconclusive: 41.8%"}, {"smiles": "C[C@H]1CN([C@@H](C)CO)C(=O)Cc2cc(NC(=O)Nc3cccc4ccccc34)ccc2O[C@@H]1CN(C)C(=O)Nc1ccc2c(c1)OCO2", "inhibition": "inconclusive: 14.5%"}, {"smiles": "CCCC1O[C@@H]2C[C@H]3[C@@H]4CCC5=CC(=O)C=C[C@]5(C)[C@H]4[C@@H](O)C[C@]3(C)[C@]2(C(=O)CO)O1", "note": "(stereo not given in full)", "inhibition": "inactive: 52.2%"}, {"smiles": "C[C@@H]1CCCCO[C@@H](CN(C)Cc2ccc3c(c2)OCO3)[C@@H](C)CN([C@H](C)CO)C(=O)c2cc(NC(=O)Nc3ccc4c(c3)OCO4)ccc2O1", "inhibition": "active: 67.8%"}, {"smiles": "C[C@H]1CN([C@@H](C)CO)C(=O)Cc2cc(NS(=O)(=O)c3ccc(F)cc3)ccc2O[C@@H]1CN(C)S(=O)(=O)c1cccs1", "inhibition": "inconclusive: 37.2%"}, {"smiles": "C[C@@H](N)C1CCC(C(=O)Nc2ccncc2)CC1", "note": "(stereo not given in full)", "inhibition": "inconclusive: 42.1%"}, {"smiles": "CCC(C)c1cnc(Cc2ccccc2)c(=O)[nH]1", "note": "(stereo not given)", "inhibition": "inactive: 6.6%"}, {"smiles": "C[C@@H]1CN([C@@H](C)CO)C(=O)Cc2cc(N(C)C)ccc2O[C@@H]1CN(C)S(=O)(=O)c1ccccc1", "inhibition": "inactive: -3.65%"}, {"smiles": "COc1ccc(S(=O)(=O)Nc2ccc3c(c2)C(=O)N([C@H](C)CO)C[C@H](C)[C@@H](CN(C)C(=O)Nc2ccc(F)cc2)OCCCC[C@@H](C)O3)cc1", "inhibition": "active: 74.1%"}, {"smiles": "Cc1noc(C)c1S(=O)(=O)N(C)C[C@@H]1Oc2c(NS(=O)(=O)c3cn(C)cn3)cccc2C(=O)N([C@H](C)CO)C[C@@H]1C", "inhibition": "inactive: -16%"}, {"smiles": "COc1ccc(NC(=O)N(C)C[C@@H]2Oc3ccc(NC(=O)Nc4ccc5c(c4)OCO5)cc3C(=O)N([C@@H](C)CO)C[C@H]2C)cc1", "inhibition": "inactive: -11.4%"}, {"smiles": "C[C@H]1CN([C@@H](C)CO)C(=O)Cc2cc(NC(=O)NC3CCCCC3)ccc2O[C@@H]1CN(C)Cc1ccc(Cl)c(Cl)c1", "inhibition": "inconclusive: 62.4%"}, {"smiles": "CNC[C@@H]1Oc2c(NC(=O)NC(C)C)cccc2C(=O)N([C@@H](C)CO)C[C@H]1C", "inhibition": "inconclusive: 7.6%"}, {"smiles": "C[C@H](CO)N1C[C@H](C)[C@H](CN(C)S(=O)(=O)c2ccc(Cl)cc2)Oc2ccc(NC(=O)Nc3ccc(F)cc3)cc2CC1=O", "inhibition": "inactive: -8.23%"}, {"smiles": "C[C@@H]1CN([C@H](C)CO)C(=O)c2cc(NC(=O)c3ccncc3)ccc2O[C@H]1CN(C)Cc1ccc(-c2ccccc2)cc1", "inhibition": "active: 89.2%"}, {"smiles": "C[C@@H]1CCCCO[C@@H](CN(C)C(=O)c2ccncc2)[C@@H](C)CN([C@H](C)CO)C(=O)c2cc(NS(=O)(=O)c3ccc(F)cc3)ccc2O1", "inhibition": "inactive: -2.27%"}, {"smiles": "C[C@@H]1CCCCO[C@@H](CN(C)S(C)(=O)=O)[C@@H](C)CN([C@H](C)CO)C(=O)c2cc(NS(=O)(=O)c3ccc(F)cc3)ccc2O1", "inhibition": "active: 74.4%"}, {"smiles": "COC(=O)C1=C(N)Oc2cc(C)n(Cc3ccccc3)c(=O)c2C1c1ccncc1", "note": "(stereo not given)", "inhibition": "inactive: -21.7%"}, {"smiles": "C[C@@H]1CN([C@H](C)CO)C(=O)c2cccc(NC(=O)c3ccncc3)c2O[C@H]1CN(C)Cc1ccc(Oc2ccccc2)cc1", "inhibition": "inconclusive: 51.2%"}, {"smiles": "C[C@@H]1CN([C@H](C)CO)C(=O)Cc2cc(NC(=O)CCN3CCOCC3)ccc2O[C@@H]1CN(C)S(=O)(=O)c1cn(C)cn1", "inhibition": "inconclusive: 16.1%"}, {"smiles": "C=CC(C)(O)CC(/C=C(\\C)CC(/C=C(\\C)CCC=C(C)C)OC(C)=O)OC(C)=O", "note": "(stereo not given)", "inhibition": "inactive: -4.53%"}, {"smiles": "O=C(C1CC1(c1ccccc1)c1ccccc1)N1CCCCC1", "note": "(stereo not given)", "inhibition": "inactive: 2.23%"}, {"smiles": "N#C/C(=C\\Nc1cccc(Cl)c1)S(=O)(=O)c1ccc(Cl)cc1", "inhibition": "inconclusive: 45.5%"}, {"smiles": "COc1ccc(NC(=O)N(C)C[C@H]2Oc3c(NS(=O)(=O)c4cn(C)cn4)cccc3C(=O)N([C@H](C)CO)C[C@@H]2C)cc1", "inhibition": "inconclusive: 57.1%"}, {"smiles": "C[C@H](CO)N1C[C@H](C)[C@H](CN(C)S(=O)(=O)c2ccc(F)cc2)Oc2c(NC(=O)NC3CCCCC3)cccc2C1=O", "inhibition": "active: 93.2%"}, {"smiles": "S=C(NCc1ccccc1Cl)NC12CC3CC(CC(C3)C1)C2", "inhibition": "inconclusive: 61.9%"}, {"smiles": "CNC[C@@H]1Oc2c(NC(=O)c3cnccn3)cccc2C(=O)N([C@H](C)CO)C[C@@H]1C", "inhibition": "inconclusive: 33.5%"}]}]}
